# From PubChem BioAssay AID624417 (National Center for Advancing Translational Sciences (NCATS), 2012)
# Screen size: about 410,000 compounds; about 6,400 (1.6%) were called active. This list was built around the results that the source calls inconclusive (neither active nor inactive); the mix of calls is not that of the screen. Calls follow the shape of the dose curve; as a rule, active = well fitted inhibition curve with a large enough effect; inconclusive = small, poorly fitted or top-dose-only effect; inactive = no such curve, though single readings can be large or run the other way. No potency is given beside an inconclusive call; the fits are too rough.
# Biological target: Glucagon-like peptide 1 receptor (Homo sapiens) (UniProt P43220)
# Experiment: qHTS of GLP-1 Receptor Inverse Agonists (Inhibition Mode); also: nearly all actives have a fitted effect of over 55% in size
# Conditions: HEK293 GLP-1R CRE-luciferase, luminescence, 24 h, GLP-1R form is constitutively active; activity change, negative = inhibition: at 38.3 µM (top of the series) unless noted
# How it was run: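 qHTS in 1536-well format: reporter HEK293 cells expressing constitutive GLP-1R activity in DMEM + 10% Nu serum, 24 hr with compounds at 37 deg C, luminescence read after 12 min with detection reagent.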
# % is scaled to controls: 0 for no effect and ±100 for the full control effect; potency is read from the fitted curve at half-maximal effect; tags tell the direction and shape of the fitted curve.
# UniProt P43220, sequence (P43220 whole entry, looked up): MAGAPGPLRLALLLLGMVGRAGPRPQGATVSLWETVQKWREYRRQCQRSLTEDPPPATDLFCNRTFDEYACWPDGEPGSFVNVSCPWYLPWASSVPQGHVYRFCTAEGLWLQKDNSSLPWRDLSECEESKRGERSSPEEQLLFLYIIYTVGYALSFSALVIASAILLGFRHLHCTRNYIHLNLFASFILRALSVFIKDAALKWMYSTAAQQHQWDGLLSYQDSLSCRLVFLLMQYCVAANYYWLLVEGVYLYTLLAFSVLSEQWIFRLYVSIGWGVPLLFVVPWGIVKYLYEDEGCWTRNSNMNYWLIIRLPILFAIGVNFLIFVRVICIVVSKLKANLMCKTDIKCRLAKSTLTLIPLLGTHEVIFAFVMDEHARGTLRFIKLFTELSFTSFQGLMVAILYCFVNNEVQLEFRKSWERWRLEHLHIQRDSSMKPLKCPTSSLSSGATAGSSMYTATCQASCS
SMILES,Potency,"activity change, negative = inhibition"
Cc1cccc(C)c1NC(=O)C(C1CC1)n1c(-c2ccc(C(F)(F)F)cc2)nc2ccccc21 (stereo not drawn),"inconclusive [inhibitor, single point]",–
c1ccc(CSc2nnc(-c3ccncc3)o2)cc1,"inconclusive [inhibitor, single point]",–
Cc1cc(C(=O)NC2CCC(C)CC2)c(C)o1 (stereo not drawn),"inconclusive [inhibitor, single point]",–
C=C(C)CN=C1NN=C(c2cc(C)n(-c3ccc(C)cc3)c2C)CS1,"inconclusive [inhibitor, single point]",–
Cc1ccc(S(=O)(=O)N2[C@@H](c3ccc(Br)cc3)C(C(=O)O)=C[C@H]2C(C)(C)C)cc1,"inconclusive [inhibitor, partial curve, poor fit]",–
Cc1cc(Nc2ccc(Cl)cc2)nc(N2CCOCC2)n1,"inconclusive [inhibitor, partial curve, poor fit]",–
Cc1ccc(-n2ncc3c(SCc4cccc(C)c4)ncnc32)cc1,inactive,–
CCCS/C(N)=N/N=C/c1cc(C)ccc1O,"inconclusive [inhibitor, full curve, poor fit]",–
CC(C)(C)OC(=O)N(CCc1ccccc1)Cc1ccccc1OCc1ccc(NC(=O)C2CCC2)cc1,active: 3.55 µM,–
Cc1ccc(C)c(NCC(=O)NNC(=S)Nc2ccccc2)c1,inactive,–
Clc1ccc(CN2C3=NCCN3c3ccccc32)cc1Cl,"inconclusive [inhibitor, partial curve]",–
CN(C)CCCN(C(=O)c1ccc(Br)s1)c1nc2cc3c(cc2s1)OCCO3,"inconclusive [inhibitor, partial curve, poor fit]",–
COc1ccc(-n2c(Cc3cccn3C)nnc2SCC(=O)Nc2ccc(C)c(Cl)c2)cc1,"inconclusive [inhibitor, single point]",–
CCOc1ccc(OCC)c(NC(=O)CN(C)S(=O)(=O)c2ccc3nc(C)sc3c2)c1,"inconclusive [inhibitor, single point]",–
O=C(N/N=C/c1cccs1)[C@H]1C[C@@H]1c1ccccc1,"inconclusive [inhibitor, single point]",–
CCSc1nc(-c2ccccc2)nc(C(Cl)Cl)n1,"inconclusive [inhibitor, single point]",–
CCc1cc2c(NC3CCCC3)ncnc2s1,"inconclusive [inhibitor, partial curve, poor fit]",–
CCOC(=O)c1ccc(NC(=O)N2CCN(c3ccccn3)CC2)cc1,"inconclusive [inhibitor, single point]",–
O=C(c1ccc(Oc2cc(Cl)cc(Cl)c2)o1)N1CCCCC1,"inconclusive [inhibitor, single point]",–
O=S(=O)(Nc1ccc(N2CCCCC2)cc1)c1ccc(F)cc1,"inconclusive [inhibitor, partial curve, poor fit]",–
O=C(NCC(c1cccnc1)N1CCc2ccccc21)C(=O)Nc1ccccc1F (stereo not drawn),–,inconclusive: -35.8% [inhibitor]

SMILES,Potency,"activity change, negative = inhibition"
CCCCNC(=O)C1(C)CCN1Cc1cccc2c(OC)cc(C(=O)OCC)cc12 (stereo not drawn),"inconclusive [inhibitor, partial curve]",–
O=S(=O)(NCc1ccccn1)c1cc(C(F)(F)F)ccc1Cl,inactive,–
Cc1ccc(NC(=O)C2(C)CCN2Cc2ccccc2OC(F)F)cc1 (stereo not drawn),"inconclusive [inhibitor, partial curve, poor fit]",–
CN(c1cccc(NC(=O)CN(c2cccc(Cl)c2)S(=O)(=O)c2ccccc2)c1)S(C)(=O)=O,"inconclusive [inhibitor, partial curve, poor fit]",–
Cc1cc(Nc2cccc(C(F)(F)F)c2)nc2ccc(NC(=O)c3cccnc3)cc12,active: 3.98 µM,–
Nc1nonc1-n1nnc(C(=O)N/N=C/c2cccnc2)c1CSC1=NCCS1,"inconclusive [inhibitor, partial curve, poor fit]",–
COc1ccc(C(CNC(=O)c2oc3ccc(OC)cc3c2C)N2CCCC2)cc1 (stereo not drawn),"inconclusive [inhibitor, partial curve, poor fit]",–
COc1ccc(C(CNC(=O)c2cccc(NS(=O)(=O)c3ccc(Br)cc3)c2)N(C)C)cc1 (stereo not drawn),"inconclusive [inhibitor, single point]",–
CCOC(=O)c1c(C)oc2nc(C)nc(N3CCN(c4cccc(C)c4C)CC3)c12,inactive,–
Cc1cc(-n2c(C)cc(C(=S)N3CCOCC3)c2C)ccc1Br,"inconclusive [inhibitor, single point]",–
Cc1nn(-c2ccc(F)cc2)c2c1cc(C#N)c1nc3ccccc3n12,inactive,–
O=c1oc2c(CN3CCOCC3)c(O)ccc2c2ccccc12,inactive,–
COCCOc1ccc(C(F)(F)F)cc1NC(=O)CN1C(=O)NC2(CCc3ccccc32)C1=O (stereo not drawn),"inconclusive [inhibitor, single point]",–
Cc1cc(Br)ccc1OCCCCN1CCCCC1,"inconclusive [inhibitor, partial curve, poor fit]",–
Cc1ccc(-c2cnc(N)n2C)cc1C,inactive,–
COc1ccc(CNC(=O)CN2C(=O)NC(C)(c3ccc(C(C)(C)C)cc3)C2=O)cc1 (stereo not drawn),"inconclusive [inhibitor, partial curve, poor fit]",–
O=C(Nc1nc2ccccc2[nH]1)c1ccccc1F,"inconclusive [inhibitor, full curve, poor fit]",–
CC1CN(C(=O)N2c3ccccc3Sc3ccccc32)CC(C)O1 (stereo not drawn),"inconclusive [inhibitor, single point]",–
CCCCN(CC)C(=O)c1ccc(-c2ccccc2)cc1,"inconclusive [inhibitor, single point]",–
CC1CCCN(C(=O)c2ccc(-c3ccccc3Cl)o2)C1 (stereo not drawn),"inconclusive [inhibitor, partial curve, poor fit]",–
O=C(COc1cccc(NC(=O)c2cccc([N+](=O)[O-])c2)c1)c1ccc(Br)cc1,active: 3.16 µM,–

SMILES,Potency,"activity change, negative = inhibition"
Cc1csc(NC(=O)c2ccc(S(=O)(=O)N(C)c3ccccc3)cc2)n1,"inconclusive [inhibitor, single point]",–
COc1ccc(S(=O)(=O)NCC(c2ccco2)N2CCN(c3ccccc3F)CC2)cc1C (stereo not drawn),"inconclusive [inhibitor, single point]",–
O=C(O)c1c2c(nc3ccc(S(=O)(=O)N4CCC(C(=O)NCc5ccc(Cl)cc5)CC4)cc13)CCCC2,inactive,–
Cc1nc2c(-c3ccccc3)cnn2c(N)c1-c1ccccc1,–,inconclusive: -95.3% [inhibitor]
Cc1cccc(CNC(=O)c2cc(S(=O)(=O)N3CCOCC3)cn2C)c1,"inconclusive [inhibitor, full curve, poor fit]",–
O=S1(=O)c2ccc(Br)cc2OC(COCc2ccccc2)CN1Cc1ccccc1 (stereo not drawn),active: 10 µM,–
CCCCCOc1ccc(NC(=O)Cn2c(-c3cncs3)nc3ccccc32)cc1,inactive,–
CCCCCCn1c(=O)n2n(c1=O)[C@@H]1CN(S(=O)(=O)c3ccc(C)cc3)C[C@]1(O)[C@@H](OC(=O)NC1CC1)C2,"inconclusive [inhibitor, single point]",–
CCOC(=O)N1CCN(Cc2nc3cc(NC(=O)c4ccc([N+](=O)[O-])cc4)ccc3n2C(C)C)CC1,"inconclusive [inhibitor, full curve, poor fit]",–
O=C(Nc1cccc(S(=O)(=O)N2CCCCCC2)c1)c1ccc(Cl)nc1,"inconclusive [inhibitor, partial curve, poor fit]",–
O=C(NCC(=O)N1CCN(S(=O)(=O)c2ccccc2F)CC1)c1ccc2c(c1)OCO2,inactive,–
Cc1ccc(-c2nc3ccc(Cl)cn3c2Cc2ccccc2C(F)(F)F)cc1,"inconclusive [inhibitor, single point]",–
CC(=O)Nc1cccc(-c2ccnc3c2CC(C(=O)Nc2cccc(N(C)C)c2)O3)c1 (stereo not drawn),"inconclusive [inhibitor, partial curve, poor fit]",–
Cc1nc(N2CCN(C(=O)COc3ccccc3)CC2)c2c(C)c(C)sc2n1,"inconclusive [inhibitor, partial curve, poor fit]",–
Cc1ccccc1C(=O)N1CCC2CC1c1cc(Cl)ccc12 (stereo not drawn),"inconclusive [inhibitor, single point]",–
CC1=NN(C(=O)c2cccc(Cn3nc(C)c([N+](=O)[O-])c3C)c2)C(O)(C(F)(F)F)C1 (stereo not drawn),"inconclusive [inhibitor, full curve, poor fit]",–
COc1ccc(-n2c(SCC(=O)Nc3ccc(Cl)cc3)nc(O)c(Cc3ccccc3)c2=O)cc1,"inconclusive [inhibitor, single point]",–
O=C(c1cccc(S(=O)(=O)Nc2ccc(Br)cc2)c1)N1CCCC1,"inconclusive [inhibitor, partial curve, poor fit]",–
CCOC(=O)Cc1cc(=O)n2[nH]c(-c3ccc(C)cc3)cc2n1,inactive,–
COc1ccc([C@H]2CC(=O)C=C(c3cccc(F)c3OC)C2)cc1,"inconclusive [inhibitor, single point]",–
CC(C)(C)OC(=O)N1CCC(C(=O)Nc2cccc(C(=O)NCCCc3ccccc3)c2)CC1,"inconclusive [inhibitor, partial curve, poor fit]",–
